To fix the notation:
B1: CPEB3 Ribozyme (parent)
chain: UAACAGGGGGCCACAGCAGAAGCGUUCACGUCGCAGCCCCUGUCAGAUUCUGGUGAAUCUGCGAAUUCUGCUGUAUAUCUC

The source gives no read counts; variants with many changes may rest on few reads.

This series covers variants of B1. Put plainly: self-cleavage, relative activity (ratio to wild type); higher = more cleavage; in vitro, sequencing. Put shortly: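 Barcoded CPEB3 ribozyme mutants, produced by rounds of error-prone PCR, self-cleaved while being transcribed with T7 RNA polymerase for 5 hours at 37°C and during a subsequent 15 min DNase I step before EDTA was added. Sequencing of template-switched cDNA on Illumina gave cleaved and total reads, and DNA sequencing assigned barcodes to variants. Each variant's relative activity is its cleaved/total read fraction divided by the unmutated ribozyme's fraction, averaged across three batches. A variant needed a minimum of 5 reads.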
As to A13U A57G A64U U78C, the self-cleavage stood at 0.26.

In the case of A13U C14A A35G U43C U67A, the self-cleavage is 0.41. Next, A13U A18G U26A A35U C40G U41G U78C: 0.07; A13U C32U G55A: 0.16. For A13U A15U U31A G63A, the self-cleavage worked out at 0.09. Next, A13U U26C C62G: 0.11; A13U A56G U72G: 0.89; A13U U25C G30U U60A: 0.06. Under A13U A21G U31C C68A stands 0.06; under A13U G19U G61U, 0.08. As to A13U G24A U25C U31C U41A U60G, the self-cleavage was 0.05. Next, A13U A20G A56G A64G: 0.62; A13U U26C U31A U41C G52C: 0.1. Under A13U A15U A18U U25C stands 0.26. For the variant A13U A15U A65G, the self-cleavage worked out at 0.29.

Turning to A13U G24A U41C U80C, the self-cleavage came out at 0.33.

For A13U U25C A56G A64G A77G, the self-cleavage amounted to 0.11.

A13U A18U G33A A47G U60C: the self-cleavage was 0.05. In the case of A13U C27U A56G, the self-cleavage worked out at 0.26. Under A13U A20U U69A U78C stands 0.24. Next, A13U A20G U60C A77U: 0.34; A13U A28U U43C: 0.55.

For A13U A20G A28U G52A C62A, the self-cleavage turned out to be 0.21. Take A13U A20U A35G U76C: the self-cleavage amounted to 0.25. A13U U25C A45G U69A U78C: the self-cleavage was 0.09. Next, A13U U26C G53A A57G U74C: 0.59; A13U A35G U67C U72C U80C: 0.58; A13U U26A A57G C62A: 0.19. Regarding A13U A15G U67C U80C, the self-cleavage is 0.29. As for A13U A15U U54C C81U, the self-cleavage turned out to be 0.21. With A13U A56G U60A, the self-cleavage was 0.6.

Regarding A13U A45G U54C A57G U67A, the self-cleavage came to 0.21.

For the variant A13U A28G U54A U69A, the self-cleavage amounted to 0.17. With A13U A18U A20U U43C, the self-cleavage is 0.17.

Regarding A13U U31A A56G U60C, the self-cleavage came to 0.15. Under A13U A15U U54C stands 0.85; under A13U A28G U51C, 0.68; under A13U A21U U31C, 0.46. Next, A13U C14U U31A: 0.42. Under A13U A20G A28G stands 0.54. As to A13U A18U U41A U43C C50U U76C U78C, the self-cleavage was determined as 0.05. Consider A13U A20G G70C, for which the self-cleavage is 0.22.

For the variant A13U A20G G36U A45G, the self-cleavage was determined as 0.21.

As for A13U C14U C40A, the self-cleavage worked out at 0.08. As to A13U A18U U60C G63A U66A U76C, the self-cleavage came out at 0.19.

Regarding A13U U26C U69C, the self-cleavage turned out to be 0.12.

Take A13U G36A A57G: the self-cleavage was 0.14. On to A13U U25C U26C A35U, for which the self-cleavage was 0.09.

A13U A18U A28U U41C A45G: the self-cleavage came to 0.15. On to A13U U31A C39U G42A U43C U74C, for which the self-cleavage was 0.13.

In the case of A13U A57G U76C, the self-cleavage stood at 1.08. As to A13U U26C U49C C62G, the self-cleavage was determined as 0.1. With A13U G19A G52U A64G, the self-cleavage was found to be 0.16. Next, A13U A47G U74C: 1.15; A13U A35G U76C: 1.26; A13U U25A U31C: 0.06. Regarding A13U G19C U41C A56G U69C U72A, the self-cleavage came out at 0.15. Next, A13U A18C A65G G73A: 0.16; A13U U25C U26C G46A U60A A64G U74C: 0.06. Next, A13U A35G A45G U60C: 1.32; A13U U25C U49A U51A U74C U78C: 0.2; A13U A18U U26A A65G U76C: 0.12.

Take A13U G36A U58G: the self-cleavage stood at 0.16.

On to A13U G36A U54G, for which the self-cleavage worked out at 0.15. With A13U A18G C37G U48C A77U, the self-cleavage was 0.22. Consider A13U A21G U25A A28G U48C U72C, for which the self-cleavage turned out to be 0.22. Take A13U A18G A28G U60C: the self-cleavage stood at 0.1. Turning to A13U A20U U54C U76A A77G, the self-cleavage is 0.4.

Turning to A13U A20U A28G U72C, the self-cleavage amounted to 0.17.

Take A13U C23U U49C: the self-cleavage came out at 0.07.

As for A13U U25C U26C U54A U69C U80C, the self-cleavage stood at 0.1.

On to A13U A21G U25A U66C U72A, for which the self-cleavage was 0.14. Next, A13U U25C U41G: 0.15; A13U A18G U43C: 0.25.

As to A13U C23U A35G, the self-cleavage turned out to be 1.22. Under A13U U25C A35U U54C U60C stands 0.11.

For the variant A13U C14A A45G U51C, the self-cleavage worked out at 0.64.

As for A13U C29A U66C U72G, the self-cleavage was 0.06. Next, A13U A20G U41C A45G C62G U67C: 0.14; A13U U26A U43C G53U A57G: 0.09; A13U A18C A21U: 0.1. On to A13U A18G C34U U43C A45G G63U, for which the self-cleavage stood at 0.08.

On to A13U A20G A21U, for which the self-cleavage stood at 0.28. Next, A13U C62U U80C: 0.26; A13U A21G A28G A45G: 0.12; A13U A64G G70A U78C: 0.27. Under A13U C34G U41C U54A U58C U72C U80C stands 0.05. Next, A13U A18U U43C C68A: 0.07. On to A13U A21U U25C U51C, for which the self-cleavage turned out to be 0.06. Next, A13U A18G A35G U54C U67C C79A: 0.24. For A13U C27A C59A U60C U72C, the self-cleavage was 0.06. Under A13U U25A U41A U54A U66C U74C stands 0.07; under A13U A18C U51C A64G U69C U74C, 0.34. Next, A13U C14U U58A A64G U76C: 0.2. As to A13U U26A U54A U78C, the self-cleavage came to 1.05. Under A13U U26C U41A U54C U69C U72A stands 0.09; under A13U A18U G36U A75U, 0.06.

In the case of A13U A45C U66A, the self-cleavage was determined as 0.17. On to A13U A18G U43C A57G, for which the self-cleavage is 0.29. Under A13U A18G G33A stands 0.37; under A13U A21G G24C, 0.05.

A13U G19C U43C U49C A56U G61A A64U: the self-cleavage was found to be 0.04.

As for A13U A18G U31C U76C A77U, the self-cleavage turned out to be 0.25. Next, A13U A20G U54C U78A: 0.39.

On to A13U A56G U78C, for which the self-cleavage was determined as 0.97.

As to A13U A18U U54G U72C U76C, the self-cleavage turned out to be 0.22. Next, A13U C40U U48A C62U A75G: 0.14; A13U A64G U80A: 0.96; A13U A20G A28U U31C A35U A56G: 0.06.

As for A13U U26C A28U U54C A56U U60C U72A, the self-cleavage came to 0.1. Turning to A13U U25C U54A G63A U69C U76C, the self-cleavage turned out to be 0.2. Next, A13U A28G U41C C79G: 1.17; A13U U25C U26G C39A U41C U60A U72C: 0.03; A13U U26A A28U A56G: 0.63. Turning to A13U G46U A56G A65U, the self-cleavage worked out at 0.13. For the variant A13U A18G U26A G52C A77C, the self-cleavage was found to be 0.52. Next, A13U G33U U48C A57G C62U U72C: 0.07. Next, A13U A20G A56U U67C: 0.26; A13U A35G U78A: 1.46. As to A13U A35G U78C, the self-cleavage is 1.29.

In the case of A13U C62A U72A, the self-cleavage amounted to 0.33. Under A13U A21G C68U stands 0.13; under A13U A56G U69C, 0.64; under A13U A45G C81U, 1.09. Under A13U G19A G52U U72A U76A stands 0.06; under A13U A21U C62A U76C, 0.16. Consider A13U C23U G42A G63A A65U, for which the self-cleavage stood at 0.04. Under A13U U26A U43C stands 0.19; under A13U A18U A21C U43C, 0.19. Next, A13U A18G U43C U60C: 0.12; A13U U26A A56U A65U: 0.11. Regarding A13U A20U A35G U69A, the self-cleavage is 0.29. Under A13U A18U A56C A75U stands 0.17. Regarding A13U A18U A45G A56U, the self-cleavage is 0.09. Under A13U A21G U60C U66C A75G U76A stands 0.11; under A13U U26A U48G U51A U58C G73A, 0.18. Under A13U C23G U74A stands 0.2; under A13U A21G U31C A35G A45C A64G A75G, 0.07; under A13U A15U U58G, 0.12.

Regarding A13U A18C U41A A45G, the self-cleavage is 0.3. Next, A13U A28G C29U U78A: 0.42; A13U U25C U69A: 0.38; A13U G22A U41G U51C C71A: 0.05.

Consider A13U A18G U31C U51C, for which the self-cleavage came out at 0.16. As for A13U A20G A45G, the self-cleavage is 0.6. A13U A28G U60A U66C: the self-cleavage was 0.13. Next, A13U G19U U25C A64G: 0.17; A13U G36U G73U: 0.14; A13U U26C A56G A57G U60C: 0.08. Next, A13U A21G A47G U54A A64G U80C: 0.22; A13U A20G C23U A28G U74C: 0.53; A13U C17U U26C U51A C62A: 0.11.

Turning to A13U A28U U43G C44U, the self-cleavage amounted to 0.2. Under A13U A18G U26A U76A stands 0.78; under A13U U26G A28G, 0.15; under A13U A20G U26C U41C U60C U69C, 0.26. Under A13U A15U U41G U80C stands 0.32.

For the variant A13U A21U A45U A47G, the self-cleavage amounted to 0.15. For the variant A13U U26C A35G U43C, the self-cleavage stood at 1.27. Next, A13U A18U A75U C81U: 0.82.

In the case of A13U A20U U41C U43C A57G, the self-cleavage is 0.21. Under A13U A18C U25C U26C C40U U54A stands 0.29; under A13U U25A A28U G33A U69C U72C U76C, 0.07; under A13U A20U U43C U54C, 0.12.

For the variant A13U G52A U60C, the self-cleavage is 0.66. Turning to A13U A18G C68A, the self-cleavage came out at 0.25. Under A13U A35U U41C A45G U60A U72C stands 0.21.

For the origin of these results see the RNAGym collection of RNA variant scans (doi:10.1093/nar/gkz1192).
